{
  "source": "the supplement of paper PMC8728848",
  "binders": {"B1": {"name": "PitA (Streptococcus oralis), G3F8D8 (protein)", "chain": "MNIRFDFKKVQIIARRLVTLLAILFLCAPISLLNADSTTEPQTTLHKTITPISGQDDKYELSLDITSKLGTETQTDPLDVVLVADLSGSMQNQDVQSFDGRTISRIDALKNTLRGTNGRKGLIDTILSNSNNRLSMVGFGGKIDNKKVDQYWDGNKWRLFRPYWPYERMTKYYDGVSPWDDANTILGWSNNARAAKTAVYNMSIAGGNSIGTESGIGTGTNIGAGLTLANQLMGSARSNAKKVVILLSDGFANMVYDANGYTIYNYNNEDPNIETAPQWFWDRLNNNLNSLSYSLAPTLDGFYSIKFRYSNNVDSITSLQYYMRQHNASIPNEIFSANDEDQLRDSFKDITDKILPLGIHHVSIKDVLSKYVQLLPNGSSEFRVVKEKDGSSEILIENQVTFDTKTTSEGLVEVTAKFSPNYSLEDGARYVLKFTVTSSQEALDAIAGDKKLEAGDAEGSDVNKLYSNKGASVTYSYGIGNSQTKTKEYSDNPTFKPSDPLTVPVEVEWQGVTGARTVITADQPSNVELKLVQKNKNGGSDNQDYRKTNVNVSKNVSNETRNFEKVAKGYQYDLIAPDVPAFTKEIKNVGTESKPSFKVIYKQLPSLTIKKVLEAENNLNKEFRIKVKLTSPDSKPLNGTFGEITVVNGEAEIRVEKRKRWEGILSYLPRGTHYKVEEEAASTNGYHVTYENQEGDLNKDETSIVTNHKLPSLSVTKKVTGVFANLLKSFKITINIRDAQNSPLNGTYTATVNNKRTPLQFTNGRASIDLNKDQTIKIYGLPLDSHYTVEEESNSSRGYQVSYENQEGKLDGDKSATVTNNKNSVPETGVDFLSSTLMLGIILPLGGIFFTILLGYLVVHRRK"}},
  "assay_in_all_cases": "glycan array binding signal (z-score within array); higher = stronger binding",
  "conditions_in_all_cases": "glycan notation: IUPAC condensed, linker removed",
  "key": {"Gal(b1-3)GlcNAc6S": {"molecular_target": "Gal(b1-3)GlcNAc6S", "summary_of_the_method": "(§1)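 Negative Z-scores can be read as non-binding. The Z-score is calculated within each array and then averaged across arrays of one protein sequence at different concentrations or buffers and across linkers. Arrays, 3228 in all, were curated from the Consortium for Functional Glycomics database and kept only where the protein sequence was available.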"}, "[1]": {"molecular_target": "Gal(b1-3)[Fuc(a1-4)]GlcNAc", "summary_of_the_method": "as §1"}, "[2]": {"molecular_target": "Gal(b1-3)[Fuc(a1-4)]GlcNAc(b1-2)Man(a1-3)[Gal(b1-3)[Fuc(a1-4)]GlcNAc(b1-2)Man(a1-6)]Man(b1-4)GlcNAc(b1-4)[Fuc(a1-6)]GlcNAc", "summary_of_the_method": "as §1"}, "[3]": {"molecular_target": "Gal(b1-3)[Fuc(a1-4)]GlcNAc(b1-3)Gal(b1-3)[Fuc(a1-4)]GlcNAc", "summary_of_the_method": "as §1"}, "[4]": {"molecular_target": "Gal(b1-3)[Fuc(a1-4)]GlcNAc(b1-3)Gal(b1-4)GlcNAc", "summary_of_the_method": "as §1"}, "[5]": {"molecular_target": "Gal(b1-3)[Fuc(a1-4)]GlcNAc(b1-3)Gal(b1-4)[Fuc(a1-3)]GlcNAc", "summary_of_the_method": "as §1"}, "[6]": {"molecular_target": "Gal(b1-3)[Fuc(a1-4)]GlcNAc(b1-6)GalNAc", "summary_of_the_method": "as §1"}, "[7]": {"molecular_target": "Gal(b1-3)[GlcNAc(b1-6)]GalNAc", "summary_of_the_method": "as §1"}, "[8]": {"molecular_target": "Gal(b1-3)[Neu5Ac(a2-6)]GalNAc", "summary_of_the_method": "as §1"}, "[9]": {"molecular_target": "Gal(b1-3)[Neu5Ac(a2-6)]GlcNAc(b1-6)Gal(b1-4)Glc", "summary_of_the_method": "as §1"}, "[10]": {"molecular_target": "Gal(b1-3)[Neu5Ac(b2-6)]GalNAc", "summary_of_the_method": "as §1"}, "Gal(b1-4)Gal": {"molecular_target": "Gal(b1-4)Gal", "summary_of_the_method": "as §1"}, "[11]": {"molecular_target": "Gal(b1-4)GalNAc(a1-3)[Fuc(a1-2)]Gal(b1-4)GlcNAc", "summary_of_the_method": "as §1"}, "[12]": {"molecular_target": "Gal(b1-4)GalNAc(b1-3)[Fuc(a1-2)]Gal(b1-4)GlcNAc", "summary_of_the_method": "as §1"}, "Gal(b1-4)Glc": {"molecular_target": "Gal(b1-4)Glc", "summary_of_the_method": "as §1"}, "Gal(b1-4)Glc6S": {"molecular_target": "Gal(b1-4)Glc6S", "summary_of_the_method": "as §1"}, "Gal(b1-4)GlcNAc": {"molecular_target": "Gal(b1-4)GlcNAc", "summary_of_the_method": "as §1"}, "[13]": {"molecular_target": "Gal(b1-4)GlcNAc(a1-6)Gal(b1-4)GlcNAc", "summary_of_the_method": "as §1"}, "Gal(b1-4)GlcNAc(b1-2)Man": {"molecular_target": "Gal(b1-4)GlcNAc(b1-2)Man", "summary_of_the_method": "as §1"}, "[14]": {"molecular_target": "Gal(b1-4)GlcNAc(b1-2)Man(a1-3)Man(b1-4)GlcNAc(b1-4)GlcNAc", "summary_of_the_method": "as §1"}, "[15]": {"molecular_target": "Gal(b1-4)GlcNAc(b1-2)Man(a1-3)[Gal(b1-4)GlcNAc(b1-2)Man(a1-6)]Man(b1-4)GlcNAc(b1-4)GlcNAc", "summary_of_the_method": "as §1"}, "[16]": {"molecular_target": "Gal(b1-4)GlcNAc(b1-2)Man(a1-3)[Gal(b1-4)GlcNAc(b1-2)Man(a1-6)]Man(b1-4)GlcNAc(b1-4)[Fuc(a1-6)]GlcNAc", "summary_of_the_method": "as §1"}, "[17]": {"molecular_target": "Gal(b1-4)GlcNAc(b1-2)Man(a1-3)[Gal(b1-4)GlcNAc(b1-2)][GlcNAc(b1-4)]Man(b1-4)GlcNAc(b1-4)GlcNAc", "summary_of_the_method": "as §1"}, "[18]": {"molecular_target": "Gal(b1-4)GlcNAc(b1-2)Man(a1-3)[GlcNAc(b1-2)Man(a1-6)]Man(b1-4)GlcNAc(b1-4)GlcNAc", "summary_of_the_method": "as §1"}, "[19]": {"molecular_target": "Gal(b1-4)GlcNAc(b1-2)Man(a1-3)[Man(a1-6)]Man(b1-4)GlcNAc(b1-4)GlcNAc", "summary_of_the_method": "as §1"}, "[20]": {"molecular_target": "Gal(b1-4)GlcNAc(b1-2)Man(a1-6)Man(b1-4)GlcNAc(b1-4)GlcNAc", "summary_of_the_method": "as §1"}, "[21]": {"molecular_target": "Gal(b1-4)GlcNAc(b1-2)Man(a1-6)[GlcNAc(b1-2)Man(a1-3)]Man(b1-4)GlcNAc(b1-4)GlcNAc", "summary_of_the_method": "as §1"}, "[22]": {"molecular_target": "Gal(b1-4)GlcNAc(b1-2)Man(a1-6)[Man(a1-3)]Man(b1-4)GlcNAc(b1-4)GlcNAc", "summary_of_the_method": "as §1"}, "[23]": {"molecular_target": "Gal(b1-4)GlcNAc(b1-2)[Gal(b1-4)GlcNAc(b1-4)]Man(a1-3)[Gal(b1-4)GlcNAc(b1-2)Man(a1-6)]Man(b1-4)GlcNAc(b1-4)GlcNAc", "summary_of_the_method": "as §1"}, "[24]": {"molecular_target": "Gal(b1-4)GlcNAc(b1-2)[Gal(b1-4)GlcNAc(b1-4)]Man(a1-3)[Gal(b1-4)GlcNAc(b1-2)[Gal(b1-4)GlcNAc(b1-6)]Man(a1-6)]Man(b1-4)GlcNAc(b1-4)GlcNAc", "summary_of_the_method": "as §1"}},
  "note": "The other results are listed elsewhere or left out.",
  "data": [
    {"binder": "B1", "values": [
      {"measurement": "glycan array binding signal (z-score)", "setting": "Gal(b1-3)GlcNAc6S", "value": 0.209},
      {"measurement": "glycan array binding signal (z-score)", "setting": "[1]", "value": 0.644},
      {"measurement": "glycan array binding signal (z-score)", "setting": "[2]", "value": 1.74},
      {"measurement": "glycan array binding signal (z-score)", "setting": "[3]", "value": 0.203},
      {"measurement": "glycan array binding signal (z-score)", "setting": "[4]", "value": -0.492},
      {"measurement": "glycan array binding signal (z-score)", "setting": "[5]", "value": 0.082},
      {"measurement": "glycan array binding signal (z-score)", "setting": "[6]", "value": 0.46},
      {"measurement": "glycan array binding signal (z-score)", "setting": "[7]", "value": -0.437},
      {"measurement": "glycan array binding signal (z-score)", "setting": "[8]", "value": -0.685},
      {"measurement": "glycan array binding signal (z-score)", "setting": "[9]", "value": -0.417},
      {"measurement": "glycan array binding signal (z-score)", "setting": "[10]", "value": -0.63},
      {"measurement": "glycan array binding signal (z-score)", "setting": "Gal(b1-4)Gal", "value": -0.023},
      {"measurement": "glycan array binding signal (z-score)", "setting": "[11]", "value": -0.722},
      {"measurement": "glycan array binding signal (z-score)", "setting": "[12]", "value": -0.376},
      {"measurement": "glycan array binding signal (z-score)", "setting": "Gal(b1-4)Glc", "value": -0.397},
      {"measurement": "glycan array binding signal (z-score)", "setting": "Gal(b1-4)Glc6S", "value": 0.214},
      {"measurement": "glycan array binding signal (z-score)", "setting": "Gal(b1-4)GlcNAc", "value": -0.34},
      {"measurement": "glycan array binding signal (z-score)", "setting": "[13]", "value": -0.028},
      {"measurement": "glycan array binding signal (z-score)", "setting": "Gal(b1-4)GlcNAc(b1-2)Man", "value": -0.212},
      {"measurement": "glycan array binding signal (z-score)", "setting": "[14]", "value": -0.431},
      {"measurement": "glycan array binding signal (z-score)", "setting": "[15]", "value": -0.186},
      {"measurement": "glycan array binding signal (z-score)", "setting": "[16]", "value": 0.386},
      {"measurement": "glycan array binding signal (z-score)", "setting": "[17]", "value": 0.242},
      {"measurement": "glycan array binding signal (z-score)", "setting": "[18]", "value": -0.324},
      {"measurement": "glycan array binding signal (z-score)", "setting": "[19]", "value": -0.248},
      {"measurement": "glycan array binding signal (z-score)", "setting": "[20]", "value": -0.248},
      {"measurement": "glycan array binding signal (z-score)", "setting": "[21]", "value": -0.058},
      {"measurement": "glycan array binding signal (z-score)", "setting": "[22]", "value": 0.021},
      {"measurement": "glycan array binding signal (z-score)", "setting": "[23]", "value": -0.211},
      {"measurement": "glycan array binding signal (z-score)", "setting": "[24]", "value": -0.584}
    ]}
  ]
}
